Measurements reported in PMC4336329 (PLoS ONE, 2015).
In all, about 310,000 compounds went through this assay and about 2,200 (0.71%) showed an effect of 50% or more. The effect is printed as a negative number. The list shows a part of the results.

Each compound was assayed against human ether-à-go-go-related gene (hERG) potassium channel (human, UniProt Q12809) (assay: primary screen, population patch clamp on CHO cells stably expressing hERG).
Sequence of human ether-à-go-go-related gene (hERG) potassium channel (Q12809 whole entry, looked up): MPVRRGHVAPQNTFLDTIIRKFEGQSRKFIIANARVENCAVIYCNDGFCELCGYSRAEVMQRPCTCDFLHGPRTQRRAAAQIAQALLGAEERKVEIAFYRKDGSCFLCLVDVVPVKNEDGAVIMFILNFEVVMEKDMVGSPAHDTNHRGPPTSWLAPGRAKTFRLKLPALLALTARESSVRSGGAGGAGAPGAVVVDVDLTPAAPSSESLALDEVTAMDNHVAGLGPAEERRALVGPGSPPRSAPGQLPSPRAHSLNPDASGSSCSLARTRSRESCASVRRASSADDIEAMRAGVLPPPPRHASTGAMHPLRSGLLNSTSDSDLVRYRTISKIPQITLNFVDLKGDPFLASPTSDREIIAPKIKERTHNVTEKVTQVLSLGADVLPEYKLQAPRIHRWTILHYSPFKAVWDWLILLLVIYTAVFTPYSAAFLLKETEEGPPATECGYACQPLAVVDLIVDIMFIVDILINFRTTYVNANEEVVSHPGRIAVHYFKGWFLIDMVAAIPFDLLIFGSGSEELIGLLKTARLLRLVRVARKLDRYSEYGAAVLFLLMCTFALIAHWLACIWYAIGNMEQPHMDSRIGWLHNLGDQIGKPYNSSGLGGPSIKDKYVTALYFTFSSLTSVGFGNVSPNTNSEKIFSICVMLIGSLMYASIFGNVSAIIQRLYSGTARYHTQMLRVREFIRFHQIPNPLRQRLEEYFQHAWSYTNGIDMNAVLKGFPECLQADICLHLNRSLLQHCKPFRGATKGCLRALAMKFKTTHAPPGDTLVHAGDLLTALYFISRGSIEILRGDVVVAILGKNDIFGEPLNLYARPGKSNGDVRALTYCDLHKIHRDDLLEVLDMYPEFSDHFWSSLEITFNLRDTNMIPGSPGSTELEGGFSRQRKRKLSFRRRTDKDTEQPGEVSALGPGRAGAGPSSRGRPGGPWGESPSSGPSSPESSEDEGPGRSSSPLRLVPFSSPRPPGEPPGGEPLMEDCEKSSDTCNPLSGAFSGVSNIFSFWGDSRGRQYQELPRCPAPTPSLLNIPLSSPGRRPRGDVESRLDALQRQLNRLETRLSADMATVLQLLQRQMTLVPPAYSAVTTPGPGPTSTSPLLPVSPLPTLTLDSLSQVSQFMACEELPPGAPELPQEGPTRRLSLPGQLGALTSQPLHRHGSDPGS

Structure (SMILES) | hERG current change (%, negative = inhibition) at 1uM [%]
N#CC1=C2C=CC=CN2CC1=O | 0.331
O=C(NCc1cccnc1)Nc1ccccc1F | 7.6
Cc1cc2c(cc(C(=O)OC(C(=O)NCC3CCCO3)C(C)C)n2C)o1 (stereo not shown) | 4.94
COc1ccc(-c2cc(=O)oc3cc(OCC(C)=O)ccc23)cc1 | 10.4
CC1CN(c2ccc(C(F)(F)F)cc2[N+](=O)[O-])CCN1S(C)(=O)=O (stereo not shown) | -29.5
COc1ccc(C(=O)C2CCCN(Cc3c(C)[nH]c4ccccc34)C2)c(OC)c1 (stereo not shown) | -28.6
O=C(COC(=O)CSc1ccc([N+](=O)[O-])cc1)NC1CCCCCCC1 | 11.5
Cc1cc(C)cc(-n2c(N)c(C(=O)Nc3c(C)n(C)n(-c4ccccc4)c3=O)c3nc4ccccc4nc32)c1 | -4.66
CS(=O)(=O)N(CC(=O)NCc1ccccc1)Cc1ccc(Cl)cc1 | -16.4
CCN1CCN(c2ccc(Nc3ccnc4ccccc34)cc2)CC1 | 11.9
O=C(NCCN1CCOCC1)c1ccc(CSCc2cccc(Cl)c2)o1 | -23
COc1ccc(-c2nc(C3CCCCC3)no2)cc1OC | 9.93
COc1ccccc1P(=O)(Cc1ccccc1)c1ccccc1 (stereo not shown) | 9.31
O=C(O)CCC(=O)Nc1cccc(C(=O)c2ccccc2)c1 | 11.8
O=C(Nc1c2c(nn1-c1ccc([N+](=O)[O-])cc1)CS(=O)(=O)C2)C1CC1 | 9.67
O=C(Nc1nc(-c2ccccn2)cs1)c1cc(S(=O)(=O)N2CCOCC2)ccc1F | 5.89
c1ccc(-c2nc(NCc3cccs3)c3ccccc3n2)cc1 | 11
Nc1c(-c2ccccc2)nc(Cl)nc1-c1ccccc1 | 13.2
COc1cc(C(C2C(=O)CC(C)(C)CC2=O)C2C(=O)CC(C)(C)CC2=O)ccc1OC(C)=O | 11.4
O=[N+]([O-])c1ccc(NCCNS(=O)(=O)c2ccccc2)cc1 | -14.5
Cc1ccc(NC(=O)COC(=O)c2ccc3c(c2)C(=O)N(CCc2ccccc2)C3=O)c(C)c1 | 15.8
COc1ccc(NC(=O)Cn2cnc3sc(C)c(S(=O)(=O)N4CCN(C)CC4)c3c2=O)cc1OC | 15.8

Structure (SMILES) | hERG current change (%, negative = inhibition) at 1uM [%]
O=C(CN1CC(=O)Nc2ccccc21)NCCc1ccc(Cl)cc1Cl | 47
NCc1nc(-c2ccc(Cl)cc2)no1 | 9.13
COc1cc2occc2c2oc(=O)ccc12 | 9.5
CN(C)S(=O)(=O)c1ccc(N2CCCC2)c(C(=O)NC2CCC(O)CC2)c1 (stereo not shown) | 12.8
COc1cccc(CNC(=O)c2ccc3c(c2)N(C)CCS3)c1OC | 15.7
Cc1ccc(C(=O)OC2CCS(=O)(=O)c3sccc32)cc1 (stereo not shown) | 9.33
Cc1nn(C)c(C(=O)N/N=C/c2ccccn2)c1[N+](=O)[O-] | 17.6
COc1ccc(C/C(O)=C(\C#N)c2nc3ccccc3[nH]2)cc1OC | 17.5
O=C(CSc1ccc(-c2nc3ccccc3[nH]2)cn1)N1CCN(C(=O)c2ccco2)CC1 | -19
Cc1sc2ncn(CC(=O)OC(C)C(=O)NC(C)(C)C)c(=O)c2c1C (stereo not shown) | 12.9
COc1ccc(/C=N/OCC(=O)NCc2cccs2)c(OC)c1 | 11.7
O=C(O)C(=O)O.c1cc2c(cc1OCCNC1CCCC1)CCC2 | 4.25
NNC(=O)c1csc(COc2cc(Cl)cc(Cl)c2)n1 | 10.1
CC(C)CN(C(=O)c1ccco1)c1nc2ccccc2s1 | 15.4
Cc1cc(C)cc(NC(=O)N2CCCC2C(=O)Nc2ccc(-n3cnnn3)cc2)c1 (stereo not shown) | -6.41
O=C(NCc1ccc(C(F)(F)F)cc1)C12CN(Cc3ccccc3)CC1C(c1cccc([N+](=O)[O-])c1)=NO2 (stereo not shown) | 16.8
Cc1ccc2c(C(=O)N3CCN(c4ccccc4)CC3)cc(-c3cccnc3)nc2c1C | 9.45
COc1ccc(C(=O)O)cc1S(=O)(=O)N1CCSCC1 | 13.6
CCC(=O)NCc1c(C)c(C)n(Cc2ccccc2)c1-n1cccc1 | 15.5
CCn1c(CC(=O)Nc2ccc(Cl)c(Cl)c2)nnc1SCc1ccc(Cl)cc1 | 10.7
CCOC(=O)Cc1csc(SC(C)C(=O)NCC(=O)Nc2ccc(F)c(F)c2F)n1 (stereo not shown) | 12.6
COc1cc(CC(=O)Nc2ccc(S(=O)(=O)Nc3ncccn3)cc2)cc(OC)c1OC | 13.2

Structure (SMILES) | hERG current change (%, negative = inhibition) at 1uM [%]
c1cncc(Nc2nc(-c3cccs3)cs2)c1 | 5.99
N#CCCN(C(=O)Cn1nc(C(=O)O)c2ccccc2c1=O)c1ccccc1 | 13.7
CCOC(=O)C1=NN(c2ccccc2)C2C(=O)N(c3ccccc3OC)C(=O)C12 (stereo not shown) | 6.51
CC(=O)c1ccc(OCC(O)CN2CCN(c3ccc(F)cc3)CC2)cc1.Cl (stereo not shown) | -64.9
COc1ccc(C)cc1N(C(=O)c1ccccc1F)c1nc2ccccc2s1 | 12.1
CCCCCCCCOc1ccc(C2CC(=O)NC2=O)cc1 (stereo not shown) | 9.75
Cc1ccc(OCC(=O)Nc2ccc3c(c2)OCCO3)cc1C | 13.5
C[C@]12CC[C@@H]3c4ccc(O)cc4CC[C@H]3[C@@H]1C[C@@H](O)[C@@H]2O[C@@H]1O[C@H](C(=O)O)[C@@H](O)[C@H](O)[C@H]1O | 13.6
CC(=O)OC(C)=O | 13.1
Cc1cccc(NS(=O)(=O)c2cc(C(=O)N3CCCCCC3)ccc2C)c1 | -0.295
CCCNCCC(c1ccco1)c1ccccc1OC (stereo not shown) | -15.9
CC/C(C)=C1\SC(N2CCN(C(C)=O)CC2)=NC1=O | 9.09
COc1ccc(CC(NC(C)=O)C(=O)NC2CCN(C(=O)c3cnccn3)CC2)cc1 (stereo not shown) | 2.1
CCS(=O)(=O)c1ccc2oc(SCC(=O)NC(C)C3CC4CCC3C4)nc2c1 (stereo not shown) | -3.67
CCC(Sc1nc2c(c(=O)[nH]1)CCC2)C(=O)Nc1cccc(OC)c1 (stereo not shown) | -6.65
CSc1ccccc1C(=O)C1CCCN(Cc2c(C)n(C)n(-c3ccccc3)c2=O)C1 (stereo not shown) | 1.52
Cc1ccc(NC(=O)C2Cc3ccccc3CN2C(=O)c2ccco2)cc1S(=O)(=O)N(C)C (stereo not shown) | 12.6
CCC1(C)Cc2ccccc2-c2nc(SCC(N)=O)[nH]c(=O)c21 (stereo not shown) | 17.5
Fc1ccc(CNC(=S)Nc2ccc(Cl)cc2)cc1 | 7.37
C[C@H](O)C(=O)C1=Nc2c(nc(N)[nH]c2=O)NC1 | 13.5
Cc1ccc(SCC(=O)Nc2ccc(N3CCOCC3)cc2)cc1C | 13
O=C(N/N=C/c1cccc([N+](=O)[O-])c1)c1cc2c(ccc3ccccc32)o1 | 19

Structure (SMILES) | hERG current change (%, negative = inhibition) at 1uM [%]
C=CCNC(=O)c1ccccc1NC(=O)C1CC(=O)N(C(C)C)C1 (stereo not shown) | 5.42
O=C(CN1CCCC1)Nc1ccc(Cl)cc1C(F)(F)F | 15
CCOC(=O)N1CCC(NC(=O)c2cc(C(=O)Nc3ccc(F)cc3F)ccc2CO)CC1 | 4.8
CCOC(=O)C1CCCN(C(=O)CN2C(=O)COc3ccc(C(C)(C)C)cc32)C1 (stereo not shown) | -4.47
O=C(Cc1ccc(Cl)c(Cl)c1)N/N=C/c1cccnc1 | 2.29
COc1cccc(N2C(=O)CC(Sc3nc(C)cc(C)n3)C2=O)c1 (stereo not shown) | 11.9
Cc1ccc(NC(=O)c2cc(-n3cnnc3)ccc2Cl)cc1 | 4.15
CC(=O)N1CCc2cc(S(=O)(=O)CCC(=O)NCc3ccc(Cl)cc3)ccc21 | 11.2
O=[N+]([O-])c1ccc2c3n([n+]([O-])c2c1)CCN=C3c1ccc(Cl)cc1 | 3.79
Cc1ccc(OC(=O)C2CCN(C(=O)c3ccccc3C)CC2)c(Br)c1 | -6.16
CNS(=O)(=O)c1cccc(C(=O)NCC(C)(C)N2CCCCC2)c1 | 10.7
CCOc1ccc(CCNC(=O)COC(=O)CNS(=O)(=O)c2ccc(C)cc2)cc1OCC | -0.961
C=CCOCCN(CCOCC=C)C1=NS(=O)(=O)c2ccccc21 | 2.66
COc1ccc(N2CC(C(=O)NC3=NCCS3)CC2=O)cc1 (stereo not shown) | 9.17
CC(NS(=O)(=O)c1ccccc1)C(N)=O (stereo not shown) | 6
COc1nnc(-c2ccc(C)c(S(=O)(=O)NCC3CCCO3)c2)c2ccccc12 (stereo not shown) | -0.937
COc1cc(C(=O)O/N=C(\N)c2ccccn2)cc(OC)c1OC | 10.7
COC(=O)/C=C/CC(C)OS(N)(=O)=O (stereo not shown) | 10.7
CC/C(=N/Nc1cccc(C)c1)c1cnnc(SC)n1 | 8.28
Cn1cc(C(=O)Nc2ccc(Cl)cc2)c(C(F)(F)F)n1 | 10.2
Cc1cc(C)c2c(n1)SCC(=O)N2CC(=O)Nc1ccc(C)c(C)c1 | -2.25
CC(C)CC1CCCCC1OC(=O)C[N+]1(C)CCCCC1.[I-] (stereo not shown) | 3.8
